# Assay results published in PubChem BioAssay AID886 (National Center for Advancing Translational Sciences (NCATS), 2007).
# Values joined by “and” are separate entries in the source; they are usually repeats but may differ in a detail not shown here. Equal entries are not always repeated. The campaign covered roughly 73,000 compounds. About 2,500 (3.4%) were called active. The shares of active, inactive and inconclusive entries below differ from those in the screen. Calls follow the shape of the dose curve; as a rule, active = well fitted inhibition curve with a large enough effect; inconclusive = small, poorly fitted or top-dose-only effect; inactive = no such curve, though single readings can be large or run the other way. A potency beside an inconclusive call is a rough fit, not a confirmed value. More than one record can exist for a structure, and the calls need not agree.
# Target: 3-hydroxyacyl-CoA dehydrogenase type-2 (Homo sapiens) (UniProt Q99714)
# Experiment: qHTS Assay for Inhibitors of HADH2 (Hydroxyacyl-Coenzyme A Dehydrogenase, Type II); also: nearly all actives have a fitted effect of over 60% in size
# Conditions: recombinant HADH2, NADH fluorescence, beta-hydroxybutyryl-CoA; activity change, negative = inhibition: at 57.1 µM (top of the series)
# Procedure, shortened: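 E. coli-expressed His-tagged HADH2 tested at 20 nM in alkaline Tris buffer (pH 9.0); oxidation of 90 uM beta-hydroxybutyryl-CoA with 1 mM NAD+ tracked fluorimetrically for 4 min.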
# % is scaled to controls: 0 for no effect and ±100 for the full control effect; potency is read from the fitted curve at half-maximal effect; tags tell the direction and shape of the fitted curve.
# Chain of UniProt Q99714 (Q99714 whole entry, looked up): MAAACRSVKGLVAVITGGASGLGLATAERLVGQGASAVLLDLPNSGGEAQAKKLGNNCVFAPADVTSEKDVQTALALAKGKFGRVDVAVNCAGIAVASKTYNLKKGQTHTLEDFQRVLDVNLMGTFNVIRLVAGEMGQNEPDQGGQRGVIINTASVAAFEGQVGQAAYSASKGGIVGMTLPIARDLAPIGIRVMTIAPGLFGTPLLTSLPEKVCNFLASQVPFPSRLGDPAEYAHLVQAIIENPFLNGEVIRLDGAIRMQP
# Chain of UniProt Q99714 (Q99714 whole entry, looked up): as above
SMILES,Potency,"activity change, negative = inhibition"
CCOC(C)=O,"inconclusive: 31.6 µM [inhibitor, single point]",–
CC(C)(C)c1cc(NC(=O)COC(=O)c2ccc3c(=O)n4c(nc3c2)CCC4)n(-c2ccccc2)n1,–,inactive: 4.46%
COc1cccc(NC2SC(=O)N(c3ccccc3)C2=O)c1 (centres undefined),–,inactive: -26.7%
O=C(c1nc2nc(-c3ccccc3)cc(C(F)(F)F)n2n1)N1CCOCC1,"inconclusive: 39.8 µM [inhibitor, single point]",–
COc1ccc(OC)c(-c2cc(C(=O)N3CCN(c4ccccc4)CC3)no2)c1,"inconclusive: 39.8 µM [inhibitor, single point]",–
Cc1ccc(-n2c3c(cc(C(=O)NCc4ccco4)c2=O)C(=O)CC(C)(C)C3)cc1,"inconclusive: 3.98 µM [inhibitor, single point]",–
CCOC(=O)c1cnc2sccn2c1=O,"inconclusive: 25.1 µM [inhibitor, single point]",–
CCN1C(=S)SC(=O)C1=C1C=C(C)N(Cc2ccco2)C(C)=C1,"inconclusive: 15.8 µM [inhibitor, partial curve]",–
Cc1cnc(CNc2ncnc3ccc(-c4ccoc4)cc23)cn1,"inconclusive: 39.8 µM [inhibitor, single point]",–
COc1cccc(NC2=CC(=O)CC(C)(C)C2)c1,–,inactive: -7.13%
COc1ccc(OC)c(-c2cc(C(=O)Nc3cc(C)n(Cc4ccc(Cl)cc4)n3)no2)c1,"inconclusive: 3.16 µM [inhibitor, single point]",–
Cc1cc(NC(=O)Cc2cccs2)no1,active: 25.1 µM,–
O=C(Nc1ccccc1C(=O)OCc1nnc(-c2ccccc2)o1)c1ccco1,"inconclusive: 39.8 µM [inhibitor, single point]",–
COCC(C)OC(=O)C(C#N)c1nc2ccccc2nc1N1CCN(Cc2ccccc2)CC1 (centres undefined),–,inactive: -3.77%
COc1ccc(C(=O)CSc2nnc(-c3ccco3)n2CC2CCCO2)cc1 (centres undefined),–,inactive: -20.9%
Cc1cc(C)c2nc(-c3ccccn3)cc(C(=O)Nc3cc(C)on3)c2c1,"inconclusive: 31.6 µM [inhibitor, single point]",–
O=[N+]([O-])c1cc(Cc2cc([N+](=O)[O-])c3cccnc3c2O)c(O)c2ncccc12,"inconclusive: 2.51 µM [inhibitor, partial curve]",–
COC(=O)c1ccccc1NC(=O)N1CSC[C@H]1C(=O)OC,"inconclusive: 7.94 µM [inhibitor, partial curve]",–
O=C(c1c(O)c2ccc(Cl)cc2[nH]c1=O)C1CC1,–,inactive: 13.7%
COCc1cc(C)n(CC(=O)Nc2ccccc2C(=O)OC)c(=O)c1C#N,"inconclusive: 20 µM [inhibitor, single point]",–
Cc1ccc2c(c1)N(CC(=O)NC1CCCCC1C)C(=O)CO2 (centres undefined),"inconclusive: 39.8 µM [inhibitor, single point]",–
COc1ccc(C2C(C(=O)NCc3ccccn3)c3ccccc3C(=O)N2C)cc1OC (centres undefined),–,inactive: 0.364%
CCOC(=O)C1OC1c1ccccc1 (centres undefined),–,inactive: 0.997%
CC1(C)CC(=O)C(C=NCCCn2ccnc2)=C(O)C1,–,inactive: 3.17% [at 11.4 µM]
CCCCNC(=O)Oc1cccc(N2CCCC2=O)c1,"inconclusive: 3.98 µM [inhibitor, single point]",–

SMILES,Potency,"activity change, negative = inhibition"
CN(C)C(=O)c1ccc(-c2cc(NCc3cccnc3)ncn2)cc1,"inconclusive: 39.8 µM [inhibitor, single point]",–
CCCCn1c(SCc2ccc(Cl)cc2)nc2c1c(=O)[nH]c(=O)n2C,"inconclusive: 10 µM [inhibitor, partial curve]",–
CC(=O)c1cccc(OCC(=O)c2cc(C)n(-c3cc(C)on3)c2C)c1,–,inactive: 9%
CCOC(=O)OCC1OC(c2ccccc2)C=CC1Oc1ccc2oc(=O)cc(C)c2c1 (centres undefined),"inconclusive: 3.16 µM [inhibitor, single point]",–
c1ccc2[nH]c(-c3ccnc4ccccc34)nc2c1,active: 25.1 µM,–
Cn1nnc2c(NCc3ccco3)nccc21,active: 31.6 µM,–
CCSc1nc2c(c(=O)[nH]1)C(c1ccccn1)C1=C(CC(C)(C)CC1=O)N2 (centres undefined),–,inactive: 18.2%
Cc1cccn2c(=O)c3cc(C(=O)NC(C)c4ccccc4)c(=N)n(CCCn4ccnc4)c3nc12 (centres undefined),"inconclusive: 25.1 µM [inhibitor, single point]",–
Cc1cc(=O)oc2cc(OCC(O)CN3CCc4ccccc4C3)ccc12 (centres undefined),"inconclusive: 31.6 µM [inhibitor, single point]",–
C=CCn1cnc2c(c1=O)c1nc3ccccc3nc1n2/N=C/c1ccccn1,active: 31.6 µM,–
COc1ccc(CNc2nc(-c3ccc(C(=O)N(C)C)cc3)nc3ccccc23)c(OC)c1,"inconclusive: 39.8 µM [inhibitor, single point]",–
OC[C@H](S)CS,"inconclusive: 1 µM [inhibitor, full curve]",–
CCOC(=O)C1C(C)N=C2SCC(=O)N2C1c1cccc(Br)c1 (centres undefined),–,inactive: -22.1%
Cc1oc2c(CN3CCCC3)c(O)ccc2c(=O)c1-c1ccc(Cl)cc1,active: 25.1 µM,–
O=C(Cc1cccs1)Nc1nnc(-c2ccncc2)s1,"inconclusive: 25.1 µM [inhibitor, single point]",–
O=C(CC1N=C2c3ccccc3N=C(SCc3ccccc3Cl)N2C1=O)NCc1ccco1 (centres undefined),"inconclusive: 31.6 µM [inhibitor, single point]",–
O=C(CSc1nnc(-c2cnccn2)n1Cc1ccco1)c1ccc(Cl)cc1,"inconclusive: 25.1 µM [inhibitor, partial curve]",–
Cc1c(N(C)C(=O)c2ccccc2F)c(=O)n(-c2ccccc2)n1C,"inconclusive: 1 µM [inhibitor, single point]",–
COc1ccc2c(c1)Cc1sc(NC(=O)c3cccs3)nc1-2,"inconclusive: 31.6 µM [inhibitor, single point]",–
O=C(O)/C=C\c1ccc(O)c(O)c1,active: 1.26 µM and active: 50.1 nM and active: 158 nM,–
CN(C)c1oc(-c2ccco2)nc1C#N,active: 25.1 µM,–
Cc1ccc2cc(CCNC(=O)C(C)C)c(=O)[nH]c2c1C,"inconclusive: 31.6 µM [inhibitor, single point]",–
CCOC(=O)N1CCN(c2c(N3CCN(c4ccccc4OC)CC3)c(=O)c2=O)CC1,–,inactive: -9.06%
CCCc1cc(C(=O)Nc2ccccc2C(=O)OC)no1,"inconclusive: 39.8 µM [inhibitor, single point]",–
O[C@@H](C1=C/C(=C\c2ccncc2)c2ccccc21)c1ccncc1,–,inactive: 1.27% [at 11.4 µM]

SMILES,Potency,"activity change, negative = inhibition"
Cc1ccc2oc(-c3ccc(NC(=O)c4ccc5c(c4)OCO5)cc3)nc2c1,active: 12.6 µM,–
Cc1ccc(Cl)cc1N1CCN(Cc2nc3c(c(=O)[nH]c(=O)n3C)n2Cc2ccccc2F)CC1,"inconclusive: 10 µM [inhibitor, partial curve]",–
COC(=O)[C@H]1C[C@@H]1[C@H](N)c1ccccc1,–,inactive: -5.04%
Cc1cnc(CNc2cc(-c3ccc(C(=O)N(C)C)cc3)ncn2)cn1,"inconclusive: 39.8 µM [inhibitor, single point]",–
COc1ccccc1N1CCN(CCCCN2C(=O)c3ccccc3C2=O)CC1,active: 31.6 µM,–
O=c1c2cc3ccccc3n2cnn1Cc1ccccc1F,"inconclusive: 25.1 µM [inhibitor, single point]",–
CCOC(=O)COc1cccc2c(=O)n(CC(=O)NCc3ccc4c(c3)OCO4)ccc12,–,inactive: -10.1%
CSc1nnc2c3cc(F)ccc3n(Cc3ccccc3)c2n1,"inconclusive: 1 µM [inhibitor, full curve]",–
O=C(O)CCc1ccc(-c2cccs2)n1NC(=O)c1ccc(Cl)cc1,"inconclusive: 3.98 µM [inhibitor, single point]",–
Cc1sc2nc3ccc(N4CCCCC4)nn3c(=O)c2c1C,active: 20 µM,–
CN(C)CCNC(=O)c1coc(=O)c(Br)c1,active: 31.6 µM,–
CCN(CC)c1ccc(NC(=O)c2cccc(C)c2OC)c(C)c1,"inconclusive: 20 µM [inhibitor, partial curve]",–
Cc1nnc(N(CCC#N)CCC#N)s1,–,inactive: -3.55%
CC[C@H](CC[C@H](C)[C@@H]1CC[C@@H]2[C@H]3CC=C4C[C@@H](O)CC[C@]4(C)[C@H]3CC[C@]21C)C(C)C,–,inactive: -2.73% [at 25.6 µM]
OCCN1CCN(c2ncnc3nc[nH]c23)CC1,"inconclusive: 39.8 µM [inhibitor, single point]",–
CNc1ncncc1-c1ccccc1C(F)(F)F,"inconclusive: 25.1 µM [inhibitor, partial curve]",–
CCCC(=O)Nc1ccc(-c2nc3cc(C)ccc3o2)cc1,–,inactive: 112%
COc1ccc(N2C(=O)CSC2c2ccc3c(c2)OCO3)cc1 (centres undefined),"inconclusive: 0.0063 µM [inhibitor, full curve, poor fit]",–
COc1ccc(CC(=O)NC(CC(=O)O)c2ccc(OC)cc2)cc1 (centres undefined),"inconclusive: 25.1 µM [inhibitor, partial curve]",–
CCN(CC)c1nc(N)c2c(N)n(-c3ccccc3C)c(=S)c(C#N)c2c1C#N,"inconclusive: 25.1 µM [inhibitor, single point]",–
CCCc1cc(C(N)=O)c(NC(=O)c2cc(C)on2)s1,active: 12.6 µM,–
Cn1c2ccccc2c2c(C(=O)NCCCN3CCCC3=O)cn(C3CCCCC3)c(=O)c21,active: 25.1 µM,–
Cc1ccc2cc(CN(C(=O)c3ccncc3)C(C)C)c(=O)[nH]c2c1,"inconclusive: 7.94 µM [inhibitor, full curve, poor fit]",–
CCC(=O)NCCc1cc2ccc(C)cc2[nH]c1=O,"inconclusive: 15.8 µM [inhibitor, partial curve]",–
